# From article PMC4336329 (PLoS ONE, 2015)
# The whole screen tested about 310,000 compounds, of which about 14,000 (4.5%) showed an effect of 50% or more. The effect is printed as a negative number. Some of the results follow.
# Molecular target: human ether-à-go-go-related gene (hERG) potassium channel (human, UniProt Q12809)
# Assay: primary screen, population patch clamp on CHO cells stably expressing hERG
# 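Also: peak tail current of the secondary pulse compared with the same well before compound.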
# Chain of human ether-à-go-go-related gene (hERG) potassium channel (Q12809 whole entry, looked up): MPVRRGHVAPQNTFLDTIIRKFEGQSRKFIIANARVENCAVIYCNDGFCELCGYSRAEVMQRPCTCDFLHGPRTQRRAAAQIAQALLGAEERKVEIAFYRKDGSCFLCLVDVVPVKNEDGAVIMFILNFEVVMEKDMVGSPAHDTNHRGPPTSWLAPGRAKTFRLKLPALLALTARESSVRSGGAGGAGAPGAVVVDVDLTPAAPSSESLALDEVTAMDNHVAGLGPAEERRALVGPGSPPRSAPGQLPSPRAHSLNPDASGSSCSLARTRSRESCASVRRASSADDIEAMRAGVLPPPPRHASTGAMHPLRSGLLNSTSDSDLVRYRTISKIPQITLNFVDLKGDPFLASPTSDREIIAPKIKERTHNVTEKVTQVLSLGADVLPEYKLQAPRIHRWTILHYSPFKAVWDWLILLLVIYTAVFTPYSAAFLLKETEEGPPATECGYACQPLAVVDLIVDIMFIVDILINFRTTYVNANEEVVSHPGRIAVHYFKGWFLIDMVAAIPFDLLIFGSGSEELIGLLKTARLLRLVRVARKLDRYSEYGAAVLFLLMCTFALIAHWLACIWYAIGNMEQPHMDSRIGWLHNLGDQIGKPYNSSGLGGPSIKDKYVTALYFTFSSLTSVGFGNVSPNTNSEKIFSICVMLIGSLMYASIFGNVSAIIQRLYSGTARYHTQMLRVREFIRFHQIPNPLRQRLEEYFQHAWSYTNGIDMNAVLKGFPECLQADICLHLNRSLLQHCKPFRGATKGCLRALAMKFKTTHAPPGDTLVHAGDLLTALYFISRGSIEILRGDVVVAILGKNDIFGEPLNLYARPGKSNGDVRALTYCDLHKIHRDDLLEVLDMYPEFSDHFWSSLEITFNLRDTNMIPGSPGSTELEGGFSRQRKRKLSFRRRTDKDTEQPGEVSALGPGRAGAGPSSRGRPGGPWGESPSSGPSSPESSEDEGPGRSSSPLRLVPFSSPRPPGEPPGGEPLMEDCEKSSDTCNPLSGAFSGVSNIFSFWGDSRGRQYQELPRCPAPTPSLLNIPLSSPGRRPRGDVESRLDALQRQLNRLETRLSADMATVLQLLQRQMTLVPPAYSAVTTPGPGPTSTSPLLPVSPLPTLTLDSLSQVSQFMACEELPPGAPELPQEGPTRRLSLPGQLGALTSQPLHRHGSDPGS
row,Compound,"hERG current change (%, negative = inhibition) at 10uM [%]"
1,CCN(CC)CCN1C(=O)c2oc3ccccc3c(=O)c2C1c1ccc(F)cc1 (stereo not drawn),-16.3
2,CCN1CCCC1CNC(=O)c1ccc(Sc2ccccc2Cl)c([N+](=O)[O-])c1 (stereo not drawn),-64.1
3,CCn1cc(-c2csc(N)n2)c(C)n1,34.1
4,CC(=O)Nc1ccc(CN2CCN(C3CCCC3)C(CCO)C2)cc1 (stereo not drawn),-1.63
5,CC(=O)Nc1ccccc1C(=O)OCC(=O)c1ccc2c(c1)OCCO2,-1.71
6,Cc1ccccc1NC(=O)CCN1C(=O)c2ccccc2C1=O,12.8
7,COC(=O)C(C)Sc1ccc2nnc(CCNS(=O)(=O)c3ccccc3)n2n1 (stereo not drawn),5.58
8,CN(C)S(=O)(=O)c1cccc(NC(=O)c2cc3ccccc3o2)c1,-13.7
9,O=C(Cc1ccccc1)NC(Nc1cccc2ccccc12)C(Cl)(Cl)Cl (stereo not drawn),1.45
10,CCN(CC)CCCNC(=O)c1ccc(OCC(=O)Nc2ccccc2C(F)(F)F)c(OC)c1,-70.5
11,COc1ccc(NC(C)=O)cc1NC(=O)CSc1nc2ncccc2[nH]1,-1.79
12,O=C(c1cc(-c2ccc(Cl)cc2)n[nH]1)N1CCN(C(=O)c2ccco2)CC1,-68.9
13,Cc1nc(Nc2nc(CSc3ccc(Cl)cc3)cc(=O)[nH]2)nc2ccccc12,-19.4
14,O=S1(=O)CCN2C=C(Cl)C=C(Cl)C2=N1,13.8
15,CC1CC(C)CN(C(=O)c2cc3c(s2)CCC3)C1 (stereo not drawn),-3.28
16,CC(=O)c1c(C)n(-c2ccccc2)c2ccc(OCC(O)CN3CCOCC3)cc12 (stereo not drawn),-7.16
17,COc1cccc(NC(=O)CSc2nc3c(sc4ccccc43)c(=O)n2CCN(C)C)c1.Cl,-65.5
18,Cc1ccc(CSc2nc3nc(C)cc(C)c3c(=O)[nH]2)cc1,-30.1
19,Cc1cc(-c2nnc(SCC(=O)Nc3ccc(F)c(F)c3)n2N)n[nH]1,-1.95

row,Compound,"hERG current change (%, negative = inhibition) at 10uM [%]"
1,CCOC(=O)c1ccc(N=NN(C)C)cc1,4.38
2,O=C(N/N=C/c1c[nH]c2ccccc12)c1cc2ccccc2o1,0.529
3,Brc1ccc(-c2nnc(-c3cccnc3)c3conc23)cc1,7.82
4,Br.CCc1ccc(C2=CSC3=NCCN23)cc1,-14.7
5,Cc1cccn2c(=O)c3cc(C(=O)NCC4CCCO4)c(=N)n(CC4CCCO4)c3nc12 (stereo not drawn),-81.9
6,CN(Cc1nccn1C)C(=O)CC1C(=O)NCCN1CC(c1ccccc1)c1ccccc1 (stereo not drawn),-3.81
7,COc1ccccc1CC1CC(=O)N(c2ccccc2)C1=O (stereo not drawn),13.6
8,CN(C)c1nc2ccccc2c(N)c1-c1ccccc1.O=C(O)C(=O)O,-65.9
9,COCC(=O)OCC(=O)Nc1cc(C)c(C)cc1[N+](=O)[O-],5.19
10,Cl.O=C(c1ccc(F)cc1F)N(Cc1ccccn1)Cc1ccco1,-17.1
11,Cn1c2ccc(CC(=O)O)cc2c2cc(CC(=O)O)ccc21,9.54
12,CC(=O)Oc1ccc2occ(/C=N/c3cc(=O)[nH]c(=S)[nH]3)c(=O)c2c1,24.9
13,O=C(Cc1ccccc1)Nc1nc(-c2ccc(F)c(F)c2)cs1,20.1
14,COc1ccc(OC)c(CN(CCCN2CCOCC2)C(=O)Nc2ccccc2)c1,-25
15,CCN(CC)S(=O)(=O)c1cc([N+](=O)[O-])ccc1N=Nc1c(O)[nH]c2ccccc12,36.4
16,COc1ccc2[nH]c3c(c2c1)CCNC3,14.9
17,COc1ccc(-n2c(C(C)n3nc(C)c([N+](=O)[O-])c3C)n[nH]c2=S)cc1 (stereo not drawn),14.2
18,COC(C/C=C/[C@H](O)[C@H](C)OCc1ccccc1)OC,8.44
19,COc1ccc(OC(C)C(=O)NCCC2=CCCCC2)cc1 (stereo not drawn),1.23

row,Compound,"hERG current change (%, negative = inhibition) at 10uM [%]"
1,COc1cccc(C(=O)Nc2c3c(nc4c2CCC4)CCCC3)c1,-23.9
2,CCN(CC)CCN1C(=O)C(=O)/C(=C(/O)c2ccccc2)C1c1ccccc1F (stereo not drawn),-1.61
3,Cc1ccc(C2=NN(CC(=O)NCCN(C)C)C(=O)CC2)cc1,-44.9
4,CCC1CO/C(=C(\C(Cl)=C(Cl)Cl)[N+](=O)[O-])N1Cc1ccc(Cl)nc1 (stereo not drawn),-48.9
5,CCCN(CC(=O)Nc1ccccc1C)C(=O)c1ccc(C(=O)c2ccccc2)cc1,-25.9
6,CCCCN(C(=O)c1ccc2c(c1)NC(=O)CS2)c1ccccc1,-24
7,COCc1nnc(NC(=O)C2CC(=O)N(CCc3ccc(F)cc3)C2)s1 (stereo not drawn),19.7
8,COc1ccc(OC)c(C(=O)c2coc3ccc(O)c(CN4CCOCC4)c23)c1,-39.7
9,Cc1ccc(SCCC(=O)OCC(=O)Nc2ncc(Cl)cc2Cl)cc1,-3.86
10,C=CCN1C(=O)N/C(=C/c2ccccc2OCC(=O)Nc2ccc(F)cc2)C1=O,-1.92
11,CCCn1nnnc1SCC(=O)NCc1cccs1,5.97
12,CNc1ccccc(C(=O)/C=C/c2ccccc2OC)c1=O,2.39
13,COc1cccc(CNCCc2ccccc2)c1OC.Cl,5.21
14,O=S(=O)(c1ccccc1)c1nc(Nc2cccc(O)c2)sc1Cl,-16.5
15,S=C(NC1CCCCC1)NC1CC2C=CC1C2 (stereo not drawn),7.86
16,O=C(NC1(C(F)(F)F)NC(=O)N(c2ccccc2)C1=O)c1cccs1 (stereo not drawn),5.73
17,CCOC(=O)C1CCN(S(=O)(=O)c2ccc3c4c2CC(=O)N4CC(C)S3)CC1 (stereo not drawn),-57.1
18,COC(=O)c1ccc(OC(=O)CCN2C(=O)C3CCCCC3C2=O)cc1 (stereo not drawn),-4.63
19,O=C1NC(=O)N(Cc2ccccc2)C(=O)/C1=C/c1cnn(-c2ccccc2)c1,2.15
